Laboratory results from the supplement of paper PMC6206098.
± gives the uncertainty stated by the source. The sequences are guide strands of siRNAs; only the seed at positions 2 to 7 varies.

How the values were obtained:
3LL = test: cell viability relative to siNT1 control; higher = less toxic; settings: concentration: 10 nM; 96 h; Mus musculus;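 also: Luminescence-based viability of cells reverse transfected in 384-well plates with lipid-complexed siRNAs built on a non-toxic 19mer backbone whose passenger strand carries 2′-O-methyl groups at positions 1 and 2, triplicates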
H460 = test: cell viability relative to lipid-only control; HeyA8 human ovarian and H460 human lung cancer; M565 mouse liver and 3LL mouse lung cancer; siNT1 is a non-toxic control siRNA; higher = less toxic; settings: concentration: 10 nM; 96 h; Homo sapiens
Protocol: (§1)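 Arrayed screen of 4096 siRNA duplexes, each carrying one of all possible 6mer seeds at guide-strand positions 2-7 in a fixed neutral 19mer scaffold (constant flanks: U at position 1, then ACAUGUAAACCA, plus a 3' AA overhang). The passenger strand is 2'-O-methylated at positions 1-2 so only the guide strand loads into RISC. Duplexes were reverse-transfected at 10 nM with RNAiMAX in triplicate in 384-well plates; viability was read by CellTiter-Glo ATP content 96 h after transfection. Values are % viability normalised to lipid-only wells (HeyA8, H460, M565) or to siNT1 (3LL).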

HeyA8 = test: as above; settings: concentration: 10 nM; 96 h; Homo sapiens
Protocol: as §1

M565 = test: as above; settings: concentration: 10 nM; 96 h; Mus musculus
Protocol: as §1
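For cell viability relative to lipid-only control in this document: reverse lipid transfection in 384-well plates, in triplicate, of duplexes on a non-toxic 19mer backbone with passenger strand 2′-O-methylated at positions 1 and 2, luminescence viability read-out.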

Row | Sequence | cell viability (3LL) [%] | cell viability (H460) [%] | cell viability (HeyA8) [%] | cell viability (M565) [%]
1 | UUCCUCGACAUGUAAACCAAA | 82.9 ± 18 | 54 ± 4.6 | 93.4 ± 14 | 57.5 ± 4.3
2 | UUAGACAACAUGUAAACCAAA | 93.8 ± 10 | 86.2 ± 29 | 104 ± 6.1 | 76 ± 16
3 | UAAAGAAACAUGUAAACCAAA | 111 ± 14 | 77.5 ± 10 | 101 ± 3.6 | 89.2 ± 21
4 | UUUCGCGACAUGUAAACCAAA | 102 ± 2.8 | 72.6 ± 10 | 106 ± 2.8 | 93.3 ± 14
5 | UACUCAAACAUGUAAACCAAA | 93.6 ± 9.3 | 81.2 ± 9.5 | 76.5 ± 4.1 | 31.1 ± 8.6
6 | UGCAGAAACAUGUAAACCAAA | 83.3 ± 7.8 | 61.2 ± 8 | 68 ± 2.1 | 64.1 ± 3.7
7 | UGAGCACACAUGUAAACCAAA | 9.99 ± 3.3 | 50.7 ± 3.1 | 69.2 ± 4.9 | 8.51 ± 1.2
8 | UCGAAAUACAUGUAAACCAAA | 86.6 ± 22 | 72.8 ± 19 | 81.2 ± 3.5 | 65.7 ± 6.4
9 | UACCGAUACAUGUAAACCAAA | 67.4 ± 3.2 | 66 ± 15 | 81.6 ± 13 | 46.1 ± 5.5
10 | UACAGGUACAUGUAAACCAAA | 66.6 ± 10 | 46.5 ± 2.2 | 12.4 ± 2.7 | 38 ± 2.1
11 | UCAAUGGACAUGUAAACCAAA | 56 ± 11 | 50.9 ± 0.76 | 44.6 ± 7.8 | 25.1 ± 2.6
12 | UUCCAAGACAUGUAAACCAAA | 113 ± 17 | 52.5 ± 5.5 | 99.9 ± 15 | 93.8 ± 3.6
13 | UCGACAUACAUGUAAACCAAA | 85.6 ± 20 | 56.1 ± 8.3 | 84.9 ± 4.5 | 61.4 ± 4.9
14 | UGGGCCAACAUGUAAACCAAA | 62.7 ± 4 | 20.9 ± 3.6 | 5.5 ± 0.21 | 16.2 ± 2.7
15 | UCCCUGGACAUGUAAACCAAA | 102 ± 11 | 36.7 ± 5.6 | 52.7 ± 1.4 | 23.7 ± 6.7
16 | UGUCAUCACAUGUAAACCAAA | 22.4 ± 5.2 | 31.9 ± 2.7 | 6.3 ± 1 | 6.93 ± 2.8
17 | UAUGCCUACAUGUAAACCAAA | 41.8 ± 5.7 | 16.3 ± 2.1 | 30.8 ± 1.6 | 23.4 ± 7
18 | UGAUGUUACAUGUAAACCAAA | 82.3 ± 16 | 60.7 ± 6.5 | 51.7 ± 4.2 | 33.4 ± 3
19 | UGUCGCAACAUGUAAACCAAA | 84.2 ± 18 | 54.4 ± 2.8 | 50.4 ± 4 | 55.1 ± 10
20 | UAACCUAACAUGUAAACCAAA | 94 ± 8.5 | 71.5 ± 7.1 | 94.3 ± 7.9 | 75.4 ± 10
21 | UUACACUACAUGUAAACCAAA | 73.4 ± 12 | 73 ± 12 | 88.7 ± 4.4 | 51 ± 16
22 | UUUUCUUACAUGUAAACCAAA | 108 ± 5.6 | 82.9 ± 10 | 91.7 ± 3 | 121 ± 7.9

Row | Sequence | cell viability (3LL) [%] | cell viability (H460) [%] | cell viability (HeyA8) [%] | cell viability (M565) [%]
23 | UUUCGGCACAUGUAAACCAAA | 76.3 ± 9.2 | 49.4 ± 2.8 | 64.4 ± 3.6 | 40.7 ± 7.9
24 | UCUCUCCACAUGUAAACCAAA | 64.3 ± 21 | 21.1 ± 1.1 | 42.3 ± 4.2 | 29.7 ± 6.3
25 | UUAGUUGACAUGUAAACCAAA | 101 ± 7.4 | 73.7 ± 16 | 81.8 ± 7.8 | 87.6 ± 19
26 | UCUGCCAACAUGUAAACCAAA | 103 ± 14 | 64.2 ± 1.2 | 80.5 ± 0.93 | 63.5 ± 11
27 | UCGCGCUACAUGUAAACCAAA | 91 ± 9.7 | 47.9 ± 5.1 | 46.1 ± 7.1 | 57.5 ± 1.7
28 | UUCUUCGACAUGUAAACCAAA | 85.5 ± 4.7 | 51.1 ± 9.8 | 76.5 ± 1.4 | 120 ± 25
29 | UACUAAGACAUGUAAACCAAA | 99.4 ± 12 | 92.7 ± 6.4 | 92.3 ± 5.9 | 64.3 ± 8.5
30 | UGCUUGGACAUGUAAACCAAA | 42.4 ± 4.6 | 36.5 ± 5.7 | 25.3 ± 2.1 | 21 ± 6.3
31 | UCACGAAACAUGUAAACCAAA | 102 ± 9.2 | 41.6 ± 9.5 | 89.1 ± 5.1 | 78.3 ± 14
32 | UCUUUUGACAUGUAAACCAAA | 86.4 ± 14 | 69.9 ± 4.1 | 86.7 ± 9.7 | 84 ± 8.3
33 | UUUGCGUACAUGUAAACCAAA | 90.1 ± 7.1 | 75.8 ± 10 | 102 ± 7.9 | 69.2 ± 10
34 | UCCUAAUACAUGUAAACCAAA | 91.1 ± 14 | 75.3 ± 13 | 87.7 ± 4.6 | 62.5 ± 10
35 | UGGCUCAACAUGUAAACCAAA | 18.8 ± 1.4 | 29.5 ± 0.94 | 8.73 ± 1 | 44.9 ± 2.9
36 | UGGUUGCACAUGUAAACCAAA | 50.8 ± 5.6 | 15.4 ± 0.98 | 18.1 ± 2.3 | 67.2 ± 1.2
37 | UCUUCACACAUGUAAACCAAA | 92.9 ± 13 | 52.3 ± 8.2 | 92.7 ± 6.9 | 61.3 ± 3.5
38 | UUUGUGGACAUGUAAACCAAA | 57.6 ± 5.8 | 64.7 ± 15 | 63.6 ± 5.1 | 39.3 ± 4.5
39 | UCUGCUGACAUGUAAACCAAA | 90.6 ± 13 | 81.5 ± 23 | 66.5 ± 4.3 | 36.8 ± 7.3
40 | UGCCAACACAUGUAAACCAAA | 52 ± 10 | 58 ± 5.5 | 60.4 ± 15 | 21.1 ± 6.7
41 | UCCGUAAACAUGUAAACCAAA | 106 ± 20 | 60.9 ± 10 | 87.1 ± 3.1 | 77.7 ± 15
42 | UAAGGCCACAUGUAAACCAAA | 4.18 ± 1.2 | 53.6 ± 5.5 | 24.3 ± 0.66 | 5.36 ± 1.4
43 | UGCAGAGACAUGUAAACCAAA | 61.3 ± 14 | 64.6 ± 6.4 | 60.3 ± 4.7 | 45 ± 1.9
44 | UCCGUCCACAUGUAAACCAAA | 24.3 ± 4.5 | 23.2 ± 3.1 | 13.1 ± 1.7 | 14.7 ± 0.19
